Results reported in PubChem BioAssay AID1460 (National Center for Advancing Translational Sciences (NCATS), 2008).
About 5,800 (2.1%) of roughly 270,000 compounds were called active. The shares of active, inactive and inconclusive entries below differ from those in the screen. Calls come from the whole dose curve; as a rule, active = well fitted inhibition curve with a large enough effect; inconclusive = small, poorly fitted or top-dose-only effect; inactive = flat fitted curve, though single readings scatter. Potencies beside an inconclusive call are fits to weak or partial responses and may not hold up.

target: Microtubule-associated protein tau (Homo sapiens) (UniProt P10636); assay: qHTS for Inhibitors of Tau Fibril Formation, Thioflavin T Binding; details: recombinant tau K18 P301L (four-repeat tau fragment), heparin-induced fibrillization, ThT fluorescence; series mostly up to 57.4 µM; note: nearly all actives have a fitted effect of over 55% in size
How it was run: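 Heparin-induced fibrillization of the P301L-mutant K18 repeat-domain fragment of human tau was followed by ThT binding in quantitative high-throughput format.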
% is set by controls: 0 for no effect and ±100 for the full control effect; potency is the fitted concentration of half-maximal effect; tags give direction and shape of the fitted curve.

UniProt P10636, sequence (P10636 whole entry, looked up, the tested form may be a part): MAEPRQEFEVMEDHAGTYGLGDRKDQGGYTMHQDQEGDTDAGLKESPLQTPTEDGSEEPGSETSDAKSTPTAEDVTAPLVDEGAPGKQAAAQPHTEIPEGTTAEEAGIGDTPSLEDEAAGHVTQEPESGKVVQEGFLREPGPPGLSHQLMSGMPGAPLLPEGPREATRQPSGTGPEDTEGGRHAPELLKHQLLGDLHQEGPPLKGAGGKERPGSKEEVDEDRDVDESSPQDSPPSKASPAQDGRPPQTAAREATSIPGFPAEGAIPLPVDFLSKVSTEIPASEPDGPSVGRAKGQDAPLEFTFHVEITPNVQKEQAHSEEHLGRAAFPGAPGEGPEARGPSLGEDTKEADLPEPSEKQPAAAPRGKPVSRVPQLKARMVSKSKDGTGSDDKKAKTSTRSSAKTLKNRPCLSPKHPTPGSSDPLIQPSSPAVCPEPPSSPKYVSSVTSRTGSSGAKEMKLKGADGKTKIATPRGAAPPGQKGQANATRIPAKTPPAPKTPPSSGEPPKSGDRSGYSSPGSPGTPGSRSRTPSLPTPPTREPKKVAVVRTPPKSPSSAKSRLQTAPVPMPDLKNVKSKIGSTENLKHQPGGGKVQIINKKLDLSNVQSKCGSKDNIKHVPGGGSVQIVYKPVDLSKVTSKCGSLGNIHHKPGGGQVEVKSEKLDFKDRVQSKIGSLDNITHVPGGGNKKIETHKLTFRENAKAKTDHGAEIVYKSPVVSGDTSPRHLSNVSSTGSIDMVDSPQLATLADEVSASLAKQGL

Row | Compound | Potency | activity, negative = inhibition
1 | COc1cccc(/C(O)=C/c2nc3ccc(C(=O)NCCc4ccc(Cl)cc4)cc3[nH]c2=O)c1 | inconclusive: 7.08 µM [inhibitor, partial curve] | 
2 | O=C(O)c1cccc(N/N=C/c2cccs2)c1 | inconclusive: 14.1 µM [inhibitor, partial curve] | 
3 | Cc1ccc(SCCC(=O)NCCSCc2ccccc2C)cc1 | inconclusive: 1 µM [inhibitor, full curve] | 
4 | CCOC(=O)c1c(C)[nH]c(C)c1S(=O)(=O)NCC(=O)N1CCN(c2ccccc2OC)CC1 | inactive | 
5 | O=C(c1cccn2c(=O)c3ccccc3nc12)N1CCN(c2ccccn2)CC1 | inactive | 
6 | CC(=O)c1ccc(C2C=CC(Oc3ccc(-c4ccccc4)cc3)C(CO)O2)cc1 (stereo unspecified) |  | inactive: -12.8% [at 11.5 µM]
7 | Cc1cccc2[nH]c3c(N4CCN(C(=O)c5ccco5)CC4)ncnc3c12 | inconclusive: 15.8 µM [inhibitor, partial curve] | 
8 | Cc1ccc(S(=O)(=O)N/N=C/c2ccc3nccnc3c2)cc1 | inactive | 
9 | CC(=O)n1cc(N(C(=O)CCl)c2ccccc2)c2ccccc21 | inconclusive: 8.91 µM [inhibitor, partial curve] | 
10 | CC(=O)c1ccc(NC(=O)CCOc2ccccc2)cc1 | inconclusive: 15.8 µM [inhibitor, partial curve] | 
11 | Cn1c(SCc2nc(-c3ccccc3)no2)nnc1-c1ccco1 | inconclusive: 39.8 µM [inhibitor, single point] | 
12 | CCCCCC(=O)NCc1c(C(F)(F)F)nn(C)c1N1CCOCC1 | inactive | 
13 | C/C(=N/NC(=O)c1ccc(C)nc1)c1ccc2c(c1)CCCC2 | inconclusive: 2.82 µM [inhibitor, full curve] | 
14 | N#CC1=C2SCN(Cc3ccco3)CN2C(=O)CC1c1cccc2ccccc12 (stereo unspecified) | active: 17.8 µM | 
15 | COc1ccc(C(=O)Nc2ccc(C(=O)OCc3cc(=O)n4nc(C5CC5)sc4n3)cc2)cc1 | inactive | 
16 | CCCOc1ccc(OCCOCCN2CCc3ccccc3C2)cc1 | inconclusive: 20 µM [inhibitor, partial curve] | 
17 | CC(C)c1ccc2c(c1)C(c1ccc(N3CCOCC3)cc1)=NNC(c1cccs1)=N2 | inconclusive: 15.8 µM [inhibitor, partial curve] | 
18 | CCOc1ccc(NC(=S)Nc2cc(C)[nH]n2)cc1 | inactive | 
19 | COc1ccccc1-c1noc(CCCC(=O)Nc2cc(C)ccc2C)n1 | inactive | 
20 | CC1=CC(c2ccccc2)n2nc(N3C(=O)C4CC=CCC4C3=O)nc2N1 (stereo unspecified) | inconclusive: 6.31 µM [inhibitor, full curve] | 
21 | O=C(c1cccc2ccccc12)C1CCCN(C(=O)c2ccc(N3CCOCC3)cc2)C1 (stereo unspecified) | inconclusive: 22.4 µM [inhibitor, partial curve] | 
